From patent US11178870B2 (priority 2017, dated 2021)

Assays:
Magnaporthe grisea = assay type: in vivo; settings: Blast on rice
Phytophthora infestans = assay type: in vivo; settings: Late blight on tomato

Row | SMILES | Test A control value (Magnaporthe grisea) | Test F control value (Phytophthora infestans)
1 | CCn1c(-c2c(F)cc(F)cc2F)c(-c2ocnc2F)cc(Cl)c1=O [Compound 120] | H (H shows the control value more than 50%) | L (L shows the control value of 50% or less)
2 | CCn1c(-c2c(F)cc(OC)cc2F)c(-n2c(C)ccc2C)cc(Cl)c1=O [Compound 126] | H (H shows the control value more than 50%) | L (L shows the control value of 50% or less)
3 | CCn1c(-c2c(F)cccc2F)c(-c2cccnc2Cl)cc(Br)c1=O [Compound 55] | H (H shows the control value more than 50%) | L (L shows the control value of 50% or less)
4 | CCn1c(-c2c(F)cc(F)cc2F)c(-n2cc(Cl)c(C)n2)cc(Cl)c1=O [Compound 142] | H (H shows the control value more than 50%) | L (L shows the control value of 50% or less)
5 | CCn1c(-c2c(F)cc(F)cc2F)c(C2OCCO2)cc(Cl)c1=O [Compound 9] | H (H shows the control value more than 50%) | L (L shows the control value of 50% or less)
6 | CCn1c(-c2ccc(F)cc2C)c(-n2cc(Cl)cn2)cc(Br)c1=O [Compound 171] | H (H shows the control value more than 50%) | L (L shows the control value of 50% or less)
7 | CCn1c(-c2c(F)cccc2F)c(-c2ocnc2Cl)cc(Cl)c1=O [Compound 50] | H (H shows the control value more than 50%) | L (L shows the control value of 50% or less)
8 | CCn1c(-c2c(F)cc(F)cc2F)c(-n2cc(C)cn2)cc(Br)c1=O [Compound 101] | H (H shows the control value more than 50%) | L (L shows the control value of 50% or less)
9 | CCn1c(-c2c(F)cc(F)cc2F)c(-n2ncnc2Br)cc(Br)c1=O [Compound 46] | H (H shows the control value more than 50%) | L (L shows the control value of 50% or less)
10 | CCn1c(-c2ccc(OC)cc2Cl)c(-c2cnco2)cc(Cl)c1=O [Compound 33] | H (H shows the control value more than 50%) | L (L shows the control value of 50% or less)
11 | CCn1c(-c2ccc(F)cc2F)c(-n2cc(Cl)cn2)cc(Cl)c1=O [Compound 148] | H (H shows the control value more than 50%) | L (L shows the control value of 50% or less)
12 | CCn1c(-c2c(F)cc(OC)cc2F)c(C2OCCCO2)cc(Cl)c1=O [Compound 10] | H (H shows the control value more than 50%) | L (L shows the control value of 50% or less)
13 | O=c1ccc(-c2cccnc2Cl)c(-c2c(F)cccc2F)n1CC(F)(F)F [Compound 58] | H (H shows the control value more than 50%) | L (L shows the control value of 50% or less)
14 | CCn1c(-c2c(F)cccc2F)c(-c2cccnc2Cl)cc(I)c1=O [Compound 65] | H (H shows the control value more than 50%) | L (L shows the control value of 50% or less)
15 | CCn1c(-c2ccc(F)cc2F)c(-n2ncc(C)c2Cl)cc(Cl)c1=O [Compound 182] | H (H shows the control value more than 50%) | H (H shows the control value more than 50%)
16 | CCn1c(-c2c(F)cc(F)cc2F)c(-c2ocnc2Br)cc(Cl)c1=O [Compound 113] | H (H shows the control value more than 50%) | L (L shows the control value of 50% or less)
17 | CCn1c(-c2c(F)cc(OC)cc2F)c(-c2ocnc2Br)cc(Br)c1=O [Compound 103] | H (H shows the control value more than 50%) | L (L shows the control value of 50% or less)
18 | CCn1c(-c2c(F)cccc2F)c(-c2oc(I)nc2I)cc(Cl)c1=O [Compound 75] | H (H shows the control value more than 50%) | L (L shows the control value of 50% or less)
19 | CCn1c(-c2ccc(F)cc2Cl)c(-n2cc(Cl)cn2)cc(Cl)c1=O [Compound 157] | H (H shows the control value more than 50%) | L (L shows the control value of 50% or less)
20 | CCn1c(-c2c(F)cc(F)cc2F)c(-n2nc(C)cc2C)ccc1=O [Compound 93] | L (L shows the control value of 50% or less) | L (L shows the control value of 50% or less)

Row | SMILES | Test A control value (Magnaporthe grisea) | Test F control value (Phytophthora infestans)
21 | CCn1c(-c2ccccc2Br)c(-n2cc(Cl)cn2)ccc1=O [Compound 183] | L (L shows the control value of 50% or less) | L (L shows the control value of 50% or less)
22 | Cn1c(-c2c(F)cc(F)cc2F)c(-n2cc(Cl)cn2)cc(Cl)c1=O [Compound 175] | H (H shows the control value more than 50%) | H (H shows the control value more than 50%)
23 | CCn1c(-c2c(F)cc(OC)cc2F)c(-n2nc(C)cc2C)ccc1=O [Compound 94] | H (H shows the control value more than 50%) | L (L shows the control value of 50% or less)
24 | Cn1c(-c2c(F)cc(F)cc2F)c(-c2cccnc2Cl)ccc1=O [Compound 98] | H (H shows the control value more than 50%) | L (L shows the control value of 50% or less)
25 | CCn1c(-c2ccc(F)cc2Cl)c(-n2cc(Cl)cn2)ccc1=O [Compound 156] | H (H shows the control value more than 50%) | L (L shows the control value of 50% or less)
26 | CCN1C(=O)CCC(c2ccsc2)=C1c1c(F)cccc1F [Compound 4] | H (H shows the control value more than 50%) | L (L shows the control value of 50% or less)
27 | CCn1c(-c2c(F)cc(OC)cc2F)c(-c2ocnc2Br)cc(Cl)c1=O [Compound 118] | H (H shows the control value more than 50%) | L (L shows the control value of 50% or less)
28 | COc1cc(F)c(-c2c(-n3cc(Cl)cn3)cc(Cl)c(=O)n2CC(F)F)c(F)c1 [Compound 111] | H (H shows the control value more than 50%) | L (L shows the control value of 50% or less)
29 | CCn1c(-c2c(F)cc(F)cc2F)c(-n2cc(Br)c(C)n2)ccc1=O [Compound 108] | H (H shows the control value more than 50%) | L (L shows the control value of 50% or less)
30 | CCn1c(-c2ccc(F)cc2Cl)c(-n2cc(Cl)cn2)cc(Br)c1=O [Compound 158] | H (H shows the control value more than 50%) | L (L shows the control value of 50% or less)
31 | CCn1c(-c2c(F)cc(OC)cc2F)c(C2OCCO2)cc(Cl)c1=O [Compound 12] | H (H shows the control value more than 50%) | L (L shows the control value of 50% or less)
32 | CCn1c(-c2c(F)cc(F)cc2F)c(-n2cc(NC(C)=O)cn2)cc(Cl)c1=O [Compound 163] | L (L shows the control value of 50% or less) | L (L shows the control value of 50% or less)
33 | CCOC(=O)c1cncn1-c1cc(Cl)c(=O)n(CC)c1-c1c(F)cc(F)cc1F [Compound 129] | H (H shows the control value more than 50%) | L (L shows the control value of 50% or less)
34 | CCn1c(-c2c(F)cc(F)cc2F)c(-n2cc([N+](=O)[O-])cn2)cc(Cl)c1=O [Compound 161] | H (H shows the control value more than 50%) | L (L shows the control value of 50% or less)
35 | CCn1c(-c2c(F)cc(OC)cc2F)c(-n2cc(Cl)c(C)n2)cc(Br)c1=O [Compound 146] | H (H shows the control value more than 50%) | L (L shows the control value of 50% or less)
36 | CCn1c(-c2c(F)cc(F)cc2F)c(-n2nc(C)c(Br)c2C)cc(Br)c1=O [Compound 117] | L (L shows the control value of 50% or less) | L (L shows the control value of 50% or less)
37 | CCn1c(-c2c(F)cc(F)cc2F)c(-c2cnco2)cc(Br)c1=O [Compound 89] | H (H shows the control value more than 50%) | L (L shows the control value of 50% or less)
38 | CCn1c(-c2c(F)cccc2F)c(-c2ccsc2)ccc1=O [Compound 16] | L (L shows the control value of 50% or less) | L (L shows the control value of 50% or less)
39 | CCn1c(-c2c(F)cc(OC)cc2F)c(-c2oc(Br)nc2Br)cc(Cl)c1=O [Compound 116] | H (H shows the control value more than 50%) | H (H shows the control value more than 50%)
40 | CCn1c(-c2c(F)cccc2F)c(-c2ocnc2Br)cc(Cl)c1=O [Compound 49] | H (H shows the control value more than 50%) | L (L shows the control value of 50% or less)
